Measurements reported in publication PMC4336329 (PLoS ONE, 2015).
Hit rate of the full screen: of about 310,000 compounds, about 14,000 (4.5%) showed an effect of 50% or more. The effect is printed as a negative number. Some of the results follow.

The molecules below were run against human ether-à-go-go-related gene (hERG) potassium channel (human, UniProt Q12809) (assay: primary screen, population patch clamp on CHO cells stably expressing hERG).
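Also: peak tail current of the secondary pulse compared with the same well before compound.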

Chain of human ether-à-go-go-related gene (hERG) potassium channel (Q12809 whole entry, looked up): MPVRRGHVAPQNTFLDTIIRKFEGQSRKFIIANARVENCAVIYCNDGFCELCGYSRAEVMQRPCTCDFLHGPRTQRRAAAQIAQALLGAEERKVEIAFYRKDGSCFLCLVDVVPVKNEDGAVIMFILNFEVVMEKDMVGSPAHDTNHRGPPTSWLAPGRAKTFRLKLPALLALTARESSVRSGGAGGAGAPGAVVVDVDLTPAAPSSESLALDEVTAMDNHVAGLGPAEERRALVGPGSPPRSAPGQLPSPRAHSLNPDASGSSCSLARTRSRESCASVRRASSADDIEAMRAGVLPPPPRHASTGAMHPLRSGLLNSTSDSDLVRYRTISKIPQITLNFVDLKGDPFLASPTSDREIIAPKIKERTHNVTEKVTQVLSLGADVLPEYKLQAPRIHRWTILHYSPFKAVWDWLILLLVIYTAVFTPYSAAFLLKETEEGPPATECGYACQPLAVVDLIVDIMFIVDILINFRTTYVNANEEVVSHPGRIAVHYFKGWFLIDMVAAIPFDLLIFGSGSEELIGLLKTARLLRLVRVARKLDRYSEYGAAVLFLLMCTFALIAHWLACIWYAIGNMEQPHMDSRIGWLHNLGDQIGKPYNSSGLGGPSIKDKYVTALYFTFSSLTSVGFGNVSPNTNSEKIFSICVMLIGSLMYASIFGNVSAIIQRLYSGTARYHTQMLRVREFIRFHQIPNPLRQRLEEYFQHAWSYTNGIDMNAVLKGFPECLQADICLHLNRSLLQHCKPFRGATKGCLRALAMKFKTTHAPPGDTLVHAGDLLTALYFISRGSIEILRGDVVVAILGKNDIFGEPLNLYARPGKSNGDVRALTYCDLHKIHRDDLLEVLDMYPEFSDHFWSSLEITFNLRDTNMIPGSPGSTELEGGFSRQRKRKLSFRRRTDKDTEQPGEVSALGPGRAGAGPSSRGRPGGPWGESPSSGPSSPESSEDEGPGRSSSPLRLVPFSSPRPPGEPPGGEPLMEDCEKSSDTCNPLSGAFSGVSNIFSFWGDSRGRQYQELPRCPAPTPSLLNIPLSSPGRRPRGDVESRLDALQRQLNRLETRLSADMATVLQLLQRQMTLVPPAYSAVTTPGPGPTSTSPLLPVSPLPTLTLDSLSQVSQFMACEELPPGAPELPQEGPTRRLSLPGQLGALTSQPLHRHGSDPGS

| SMILES | hERG current change (%, negative = inhibition) at 10uM [%] |
| --- | --- |
| COc1ccc(C(=O)Oc2c(CN3CCOCC3)cc(Cl)c3cccnc23)cc1OC | 6.53 |
| Cc1cccc(N(C(=O)c2csnn2)C(C(=O)NCc2ccccc2)c2cccs2)c1 (stereo not drawn) | -9.49 |
| O=C(O)c1ccc(S(=O)(=O)NC2CCCCCC2)cc1 | 20.7 |
| Cn1cc(C(=O)NCC2COc3ccccc3O2)c(=O)c2cc(S(=O)(=O)N3CCCCC3)ccc21 (stereo not drawn) | 4.61 |
| COc1cc(NC(=O)COc2ccccc2)ccc1NC(=O)c1ccco1 | -9.92 |
| COc1ccc(Cl)cc1-c1nc(-c2ccc(NC(=O)c3ccncc3)cc2)no1 | 2.51 |
| c1cc2c3c(cccc3c1)NC(c1ccc3c(c1)OCO3)N2 | 11.7 |
| Cc1ccsc1CN(C)C(=O)C1CCC(=O)N(CCc2cccc(F)c2)C1 (stereo not drawn) | -35.9 |
| CC1(C)CC(=O)C(CC(=O)N2CCC(Cc3ccccc3)CC2)C(=O)C1 | 34.8 |
| COCCCn1c2nc3ccccc3nc2c2c(=O)n(Cc3ccc(Cl)cc3)cnc21 | -12.7 |
| CC(=O)c1cccc(NC(=O)NC2CCCc3ccccc32)c1 (stereo not drawn) | -11 |
| COCCCNC(=S)N1CCN(c2nc(-c3ccccc3)cs2)CC1 | -5.55 |
| Cc1ccc(NCc2nnc(SCC(=O)O)n2-c2ccc(C)cc2)cc1 | 16.8 |
| N#CCCn1c(SCC(=O)N2CCN(S(=O)(=O)c3ccccc3)CC2)nc2ccccc21 | -32.6 |
| COc1ccc(-n2c(Cc3cccn3C)nnc2SCC(N)=O)cc1 | -0.432 |
| CC(C)(C)C1CCCCC1NC(=O)c1ccncc1 (stereo not drawn) | 12.1 |
| CCc1ccc(CN2CCN(S(=O)(=O)Cc3ccccc3)CC2)cc1.O=C(O)C(=O)O | 5.61 |
| Cc1ccc(NC(=O)c2ccc(Cl)c(S(=O)(=O)N3CCCC3)c2)nc1 | -8.97 |
| O=C(N1CCN(c2ccccc2)CC1)C(F)(F)C(F)(F)F | 12.2 |
| CCOC(=O)N1CCN(C(=O)CSc2cc(C)nc3c(-c4ccccc4OC)c(C)nn23)CC1 | -17.6 |
| CCC(=O)Nc1ccccc1 | -1.07 |
| CCN1C(=O)C(c2ccc(O)cc2)(c2ccc(O)cc2)c2ccccc21 | -18 |
| Cc1cccc(C(=O)N2CCCC(N3CCN(c4cccc(Cl)c4)CC3)C2)n1 (stereo not drawn) | -17.5 |

| SMILES | hERG current change (%, negative = inhibition) at 10uM [%] |
| --- | --- |
| Cc1c(Br)c([N+](=O)[O-])nn1C(C)C(=O)N1CCCc2ccccc21 (stereo not drawn) | -2.66 |
| CC(CCc1ccccc1)NC(=O)COC(=O)c1ccccc1O (stereo not drawn) | 2.31 |
| COc1ccc(/C=C/C(=O)c2cc3cccc(OC)c3oc2=O)cc1 | 15.4 |
| COc1cccc(-c2nc(OC(C)C)c3ccccc3n2)c1 | 1.35 |
| CC(=O)Nc1nc(C)c(-c2csc([NH2+]c3ccccn3)n2)s1.[Br-] | -23.2 |
| COCCNC(=O)COC(=O)c1[nH]c(C)c(C(C)=O)c1C | 23.8 |
| CCNC(=S)Nc1cc(Cl)ccc1Oc1ccccc1 | -8.45 |
| O=c1c(Cl)c2oc3ccccc3nc-2c2ccccc12 | 28.9 |
| COc1ccccc1NC(=S)NC(=O)/C=C/c1ccco1 | 20.3 |
| CC(=O)c1ccc(NC(=O)C2CCCC2)cc1 | 10.7 |
| Cl.O=C(O)c1ccc(CNCc2ccccc2Cl)cc1 | -45.9 |
| Cc1cc(C)c(-c2cc(NC(=O)CSc3n[nH]c(N)n3)n(-c3ccccc3)n2)cc1C | 3.57 |
| COc1ccccc1/C=N/NC(=O)C(=O)Nc1ccccc1OC(F)(F)C(F)F | -3.16 |
| COc1cc2c(cc1NC(=O)COC(=O)c1ccccc1)oc1ccccc12 | 10.2 |
| Cn1cccc1C1Nc2ccccc2NC2=C1C(=O)CC(C)(C)C2 (stereo not drawn) | 12.1 |
| Cc1ccc(C(=O)OC(C)C(=O)Nc2ccc3c(c2)OCO3)c(O)c1 (stereo not drawn) | -12.1 |
| C=CCn1c(SCC(=O)Nc2ccc(S(N)(=O)=O)cc2)nnc1-c1cnccn1 | 13 |
| CC1(C)SC2C(NC(=O)COc3ccccc3)C(=O)N2C1C(=O)O (stereo not drawn) | 13.5 |
| COCCOC(=O)C(CC(=O)O)NCc1ccco1 (stereo not drawn) | -2.8 |
| COc1ccc(NC(=O)C2CCCNC2=O)cc1 (stereo not drawn) | 11.6 |
| Cc1cc(Nc2ccc(F)cc2F)n2nc(C)nc2n1 | 4.46 |
| CN1CCN(NC(=O)c2ccc(Cl)cc2Cl)CC1 | 0.116 |
| Cc1cc(OCC(=O)NCc2ccncc2)c2c(C)cc(=O)oc2c1 | -30.1 |

| SMILES | hERG current change (%, negative = inhibition) at 10uM [%] |
| --- | --- |
| CSCc1cc(N(C)c2ccccc2)nc(-c2ccccc2)n1 | 22.4 |
| O=C(c1ccccc1)c1cc2ccc(O)cc2oc1=O | 8.61 |
| O=C(COC(=O)CCc1c[nH]c(=O)[nH]1)Nc1ccccc1 | 12.4 |
| COc1ccc(CCN2CC(C(=O)O)CC2=O)cc1OC (stereo not drawn) | 0.984 |
| CCOC(=O)C1=C(c2ccccc2)N=c2s/c(=C\c3cccc(O)c3)c(=O)n2C1c1cccs1 (stereo not drawn) | 12.2 |
| COC(=O)c1c(C(=O)OC)c(-c2ccc(Cl)cc2)n2c1CS(=O)(=O)C2 | -18.9 |
| Cc1ccc(NC(=O)CSc2nc3ccccc3c(=O)n2CCCC(=O)NCCCN2CCOCC2)cc1 | -52.6 |
| COc1ccccc1N1CCN(/N=C/C=C\c2ccccc2[N+](=O)[O-])CC1 | 26.9 |
| CCOc1ccc(CCNC(=O)Cn2nc(C)c3c(C)n(-c4ccccc4)nc3c2=O)cc1 | 14.4 |
| CCOc1ccc(OCC)c(NC(=O)CSCC(=O)O)c1 | 2.04 |
| CCOc1ccccc1N/C=C(\C#N)c1nc2ccccc2n1C | -1.21 |
| CCCCn1c(SCc2ncc(-c3ccccc3)o2)nc2cc(S(N)(=O)=O)ccc21 | -50.5 |
| O=C(Nc1sc2c(c1CN1CCOCC1)CCC2)c1ccc(F)cc1 | -3.33 |
| CC(C)CCNC(=O)NC(=O)COc1ccccc1C#N | -4.64 |
| O=C(N/N=C/c1ccc([N+](=O)[O-])cc1)c1cnccn1 | -6.52 |
| CCc1cccc(NC(=O)NC(=O)Cn2nnc(C(=O)OC)c2C(=O)OC)c1 | 10.4 |
| CC(C)n1c(SCC(=O)Nc2ccccc2)nc2c1c(=O)[nH]c(=O)n2C | -14.4 |
| N#CC(Cc1ccc(OC(F)F)cc1)c1nc2ccccc2[nH]1 (stereo not drawn) | -70.1 |
| Cc1ccc(S(=O)(=O)N/N=C\c2ccc3c(c2)OCO3)c(C)c1 | 5.18 |
| Cc1nnc(NC(=O)CSc2nccn2Cc2ccccc2)s1 | -14.1 |
| CCn1c(SCC(=O)Nc2ccc3c(c2)OCO3)nc2c(c1=O)SC(C)C2 (stereo not drawn) | -7.63 |
| CC(NC(=O)C1CCCC1)C1CC2CCC1C2 (stereo not drawn) | 11.1 |
| COc1ccc(-n2c(=S)[nH]c3cc(C(=O)NCc4ccccc4OC)ccc3c2=O)c(OC)c1 | 16 |

| SMILES | hERG current change (%, negative = inhibition) at 10uM [%] |
| --- | --- |
| Cc1cnc(C(=O)Nc2cccc(S(=O)(=O)N(C)C)c2)cn1 | 7.84 |
| CC(=O)Nc1ccc(NC(=O)[C@@H]2CCCN2S(=O)(=O)c2ccc3c(c2)OCCO3)cc1 | 12.2 |
| Cc1c(C(=O)NC(=S)Nc2ccccc2N2CCCC2)cccc1[N+](=O)[O-] | 3.52 |
| O=C1CC(c2ccccc2)CC(O)=C1C=NCc1ccccc1 (stereo not drawn) | 1.16 |
| C=CCOCC(O)Cn1c(N2CCCC2)nc2c1c(=O)[nH]c(=O)n2C (stereo not drawn) | 12.7 |
| Cc1cc(C)n2cc(CSc3ncn[nH]3)nc2n1 | 0.809 |
| COc1ccc(Cl)cc1N(CC(=O)N1CCC(C)CC1)S(C)(=O)=O | -6.39 |
| Cc1ccnc(NS(=O)(=O)c2ccc(N3C(=O)Nc4ccccc4N3O)cc2)c1 | 17.9 |
| O=C(Oc1ccc(C(=S)N2CCCCC2)cc1)c1ccccc1 | -6.33 |
| Cn1c(CNC(=O)CNC(=O)c2ccccc2F)cc(=O)n(C)c1=O | 30.6 |
| CCn1c(SCC(=O)N/N=C/c2ccccc2OCC(=O)O)nnc1-c1ccccc1 | 5.58 |
| Cc1ccccc1NC(=S)N(CCN1CCOCC1)Cc1ccccc1F | 30.1 |
| CCc1nc(SCc2ccc(OC)cc2)n[nH]1 | 24.7 |
| Cn1c(=O)oc2ccc(C(=O)CSc3nnnn3-c3ccccc3)cc21 | 4.09 |
| Cc1cc(Nc2ccccc2)cc(=O)n1C | 18.6 |
| COc1ccccc1NC(=O)N1CCN(c2ccccn2)CC1 | 7.9 |
| CCOC(=O)c1cccc(NC(=O)c2cccs2)c1 | -13.1 |
| Cc1ccc(OCCC(=O)OCC(=O)N2c3ccccc3CC2C)cc1 (stereo not drawn) | 17.9 |
| CCN(CC(=O)Nc1ccc(OC)cc1)C(=O)CSCc1ccc(C)cc1 | -22.2 |
| COc1cc(NC(=S)NCc2ccc(S(N)(=O)=O)cc2)cc(OC)c1 | 10.4 |
| Cc1ccccc1C(=O)NNC1CC(=O)N(c2ccc3c(c2)OCCO3)C1=O (stereo not drawn) | -4.37 |
